# Measured values published in the supplement of paper PMC12217912.
# Some of the results follow. Sequences were assembled here from the parent chain. Inactive controls read about 0.05.
# B1: TEV protease; numbered along this chain (parent)
# chain: MGESLFKGPRDYNPISSSICHLTNESDGHTTSLYGIGFGPFIITNKHLFRRNNGTLVVQSLHGVFKVKDTTTLQQHLVDGRDMIIIRMPKDFPPFPQKLKFREPQREERICLVTTNFQTKSMSSMVSDTSCTFPSGDGIFWKHWIQTKDGQCGSPLVSTRDGFIVGIHSASNFTNTNNYFTSVPKNFMELLTNQEAQQWVSGWRLNADSVLWGGHKVFMVKPEEPFQPVKEATQL
# Variants of: B1
# Assay: raw area under fraction-flipped curve 0-4 h after induction (AUC4h, not background-subtracted), DNA-recorder readout of cleavage of the substrate (dimensionless); higher = more cleavage of the substrate by the protease variant
# Conditions: temperature: 34 °C; time window: 0-4 h after rhamnose induction
# 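Further: Bxb1 expression induced with 0.2% (w/v) L-rhamnose at OD600 near 0.5, cultures sampled hourly, flipped fraction per protease–substrate barcode pair counted by paired-end Illumina sequencing.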
Variant,area with substrate ENCYFQS,area with substrate ENEYFQS,area with substrate ENFYFQS,area with substrate ENHYFQS,area with substrate ENTYFQS,area with substrate ENYYFQS,area with substrate ENDYFQS,area with substrate ENGYFQS,area with substrate ENIYFQS,area with substrate ENNYFQS,area with substrate ENQYFQS,area with substrate ENRYFQS,area with substrate ENVYFQS,area with substrate ENKYFQS,area with substrate ENSYFQS,area with substrate ENWYFQS,area with substrate ENMYFQS,area with substrate ENPYFQS
F218G,0.0777,0.0553,0.0584,0.0504,0.0539,0.0647,–,–,–,–,–,–,–,–,–,–,–,–
F218S,0.0828,–,–,0.0522,–,–,0.0717,0.0455,0.0977,0.0652,0.0648,0.0484,0.0318,–,–,–,–,–
P222G,0.071,0.0827,0.0401,0.0555,–,0.0634,0.07,0.043,0.112,0.0814,0.0469,0.0692,0.0689,0.0595,0.0623,0.0708,–,–
E223F,0.0641,0.0534,0.0658,–,0.0494,0.0554,0.0878,–,0.0814,0.0581,0.065,–,0.079,0.0521,0.0625,–,0.0709,–
P225T,0.0767,0.0694,–,0.0513,0.0489,0.0626,0.0596,–,–,0.0593,0.0708,–,0.0767,–,0.0578,–,0.0877,0.0624
P228N,0.0683,0.0573,0.065,0.0576,–,0.0664,0.0598,0.0602,0.109,0.0615,0.0516,0.0583,0.0848,–,0.0778,0.0791,–,–
T233D,0.0732,0.0611,–,0.063,0.0586,–,0.0855,–,–,0.0608,0.0643,0.0561,0.088,–,0.0418,–,0.0792,0.0638
T233S,0.0595,0.0446,–,0.0556,–,–,0.0584,0.0595,0.119,0.0537,0.0644,0.0545,0.0756,0.0641,0.0605,–,0.148,0.0303
D11R,–,0.0699,0.0592,0.0514,0.0798,0.0504,0.0633,0.0547,0.135,0.0642,0.0514,–,0.07,0.078,0.0529,–,–,–
I19T,–,0.0533,–,0.0972,0.06,–,0.0636,0.0708,–,0.0548,0.0572,–,0.0736,–,–,–,0.0863,0.0531
F41N,–,0.0568,0.0594,–,–,0.0454,0.0724,0.0617,–,0.0633,0.0582,0.0413,0.069,0.0595,0.0542,0.0474,–,0.0578
I42D,–,0.0561,0.0446,0.0283,0.0622,0.0891,0.0492,–,0.0469,–,–,0.0413,–,–,0.0386,0.0324,0.0242,–
V57Y,–,0.0539,–,0.0699,0.0714,0.0435,0.0619,0.0579,0.124,0.0703,–,0.0581,0.0793,0.0435,0.101,0.0426,0.101,0.0663
Q59V,–,0.067,–,–,0.0648,–,0.061,0.0563,–,0.0738,0.0539,0.0636,–,–,–,0.0574,0.0671,0.0584
F65R,–,0.061,–,0.0674,0.071,0.0573,0.0591,0.0561,0.0922,0.0551,0.0545,0.048,0.072,–,0.0608,0.057,–,–
D91C,–,0.0596,0.0668,0.0654,–,–,0.0536,0.0134,–,0.046,0.0539,–,0.0819,–,0.0611,–,0.0801,–

Variant,area with substrate ENCYFQS,area with substrate ENEYFQS,area with substrate ENFYFQS,area with substrate ENHYFQS,area with substrate ENTYFQS,area with substrate ENYYFQS,area with substrate ENDYFQS,area with substrate ENGYFQS,area with substrate ENIYFQS,area with substrate ENNYFQS,area with substrate ENQYFQS,area with substrate ENRYFQS,area with substrate ENVYFQS,area with substrate ENKYFQS,area with substrate ENSYFQS,area with substrate ENWYFQS,area with substrate ENMYFQS,area with substrate ENPYFQS
E108P,–,–,0.0408,–,0.0477,–,0.0608,–,0.0579,–,0.0533,–,–,0.0664,0.0585,–,0.0669,0.0649
C111K,–,–,0.0778,–,0.0609,–,0.061,0.0516,–,–,0.0807,0.0646,0.0698,–,0.078,–,–,0.0231
K120L,–,–,–,–,–,–,0.0576,–,–,0.05,0.0473,0.0335,0.0652,–,0.0638,–,–,–
V126G,–,0.0538,–,–,0.0686,–,0.0509,–,–,0.0632,–,0.061,0.0893,–,0.0682,–,0.0591,–
T132F,–,0.0573,0.0602,0.12,0.0567,–,0.0576,0.0602,0.0526,0.0399,–,0.051,0.0606,0.0522,0.0521,–,0.0571,–
F133D,–,0.0565,–,0.0628,–,–,0.0482,–,–,–,0.0577,0.0411,0.0928,–,0.0705,0.0365,–,0.087
S169N,–,0.0527,0.0536,0.0618,0.0628,–,0.0559,–,0.0594,0.0603,0.062,0.0585,0.0544,0.0547,0.0618,0.0618,0.0615,0.0377
K185P,–,0.0641,0.0679,–,0.0817,–,0.0797,–,–,–,0.06,–,0.0807,–,0.0616,–,0.0954,0.0643
V200E,–,–,0.0824,–,–,0.0552,0.0652,–,–,0.0471,–,–,–,–,0.0591,0,–,0.0487
W203R,–,0.0609,0.0667,–,0.0582,–,0.0908,–,–,0.0712,–,0.0303,–,–,0.0632,–,–,0.0657
E224P,–,0.0668,–,0.0587,0.0649,–,0.0576,0.0836,0.0907,0.0519,–,–,–,–,0.0653,–,–,0.082
M122K,–,0.0561,0.0657,–,0.0909,0.0771,–,0.0631,0.07,0.0648,0.0605,–,0.064,–,0.0591,–,–,–
Q198V,–,0.0486,–,–,0.0618,0.0605,–,0.0675,–,0.0545,0.0519,0.0631,0.0679,–,0.0595,0.0512,0.0713,–
W212M,–,0.0599,0.0663,–,0.0369,–,–,–,0.179,–,0.0548,–,0.102,–,0.0647,0.0817,–,–
P222M,–,0.0621,0.0605,–,0.0621,–,–,0.0581,0.122,–,0.0581,0.0634,0.0791,0.0545,0.0716,0.0335,–,–
N52I,–,–,0.0818,–,0.0603,–,–,–,0.0616,–,–,–,0.0577,0.0879,–,–,0.0601,–
